# In the BET-seq Pho4 binding data (Le et al. 2018):
# The other results are listed elsewhere or left out. The energies were worked out here from pooled read counts, against the library average; single values are noisy.
# Target: T1, Pho4 (S. cerevisiae) (UniProt P07270)
# T1 sequence: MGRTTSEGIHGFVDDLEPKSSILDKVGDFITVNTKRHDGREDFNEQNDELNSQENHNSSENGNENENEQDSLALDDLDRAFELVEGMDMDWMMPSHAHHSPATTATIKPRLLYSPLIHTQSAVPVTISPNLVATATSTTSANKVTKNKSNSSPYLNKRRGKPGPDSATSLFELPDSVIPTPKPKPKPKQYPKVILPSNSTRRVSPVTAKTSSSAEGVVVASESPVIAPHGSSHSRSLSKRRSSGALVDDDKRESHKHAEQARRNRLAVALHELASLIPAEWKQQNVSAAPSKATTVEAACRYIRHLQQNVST
# Assay: relative binding free energy (BET-seq); higher = weaker binding
# Details: reference: library average
row,Sequence,relative binding free energy
1,GGTGGCACGTGTCGGA,0.02 kcal/mol
2,CATTTCACGTGGTAGT,0.27 kcal/mol
3,TGCTGCACGTGTAAGG,0.11 kcal/mol
4,TACAGCACGTGGATGG,0.09 kcal/mol
5,GAGAGCACGTGGGCAT,-0.24 kcal/mol
6,GGAGGCACGTGGGTCT,-0.29 kcal/mol
7,GTTTGCACGTGTGAGT,0.12 kcal/mol
8,GGATACACGTGTTCGG,0.16 kcal/mol
9,TTACTCACGTGGGATT,-0.01 kcal/mol
10,GGTTCCACGTGTTTCG,0.14 kcal/mol
11,TGTGTCACGTGATGTG,0.15 kcal/mol
12,CCTAGCACGTGTGGGG,-0.05 kcal/mol
13,TTTTGCACGTGTTATC,-0.02 kcal/mol
14,TCTGCCACGTGGGTGT,-0.18 kcal/mol
15,GTTCGCACGTGCGGGG,-0.06 kcal/mol
16,GTGATCACGTGTGTGT,0.14 kcal/mol
17,TATTTCACGTGTACTT,0.22 kcal/mol
18,GGCGTCACGTGGATGG,0.13 kcal/mol
19,GTAGGCACGTGTGAAA,0.14 kcal/mol
20,TGTGGCACGTGTGTTC,0 kcal/mol
21,ATGTACACGTGAATTT,0.29 kcal/mol
22,TGTGGCACGTGGGGCT,-0.18 kcal/mol
23,GAAAGCACGTGAGCGT,0.35 kcal/mol
24,TCGTTCACGTGTGAGA,0.33 kcal/mol
25,GGACGCACGTGGCTGT,-0.05 kcal/mol
26,GGGATCACGTGGGGAA,0.05 kcal/mol

row,Sequence,relative binding free energy
1,TTAAACACGTGTTTAT,-0.14 kcal/mol
2,CGTGTCACGTGTTGGA,0.32 kcal/mol
3,GGTTTCACGTGAAAAT,0.49 kcal/mol
4,ATGCTCACGTGTGATT,0.31 kcal/mol
5,ATTTACACGTGTGTGA,0.08 kcal/mol
6,TACGGCACGTGGGGTG,-0.28 kcal/mol
7,ATATCCACGTGTGTGG,0.02 kcal/mol
8,ACATGCACGTGTGGTT,-0.01 kcal/mol
9,CATTTCACGTGTTCGT,0.13 kcal/mol
10,TTATGCACGTGTAGCT,0.04 kcal/mol
11,GGTATCACGTGAGTGC,0.34 kcal/mol
12,ATGTGCACGTGTGGTA,-0.09 kcal/mol
13,AGGGACACGTGTTCTG,0.12 kcal/mol
14,AGTTACACGTGATGGG,0.25 kcal/mol
15,ATATGCACGTGTTTTT,0 kcal/mol
16,GGGTGCACGTGGCCTT,-0.08 kcal/mol
17,TTGTGCACGTGAGATA,0.27 kcal/mol
18,TATGCCACGTGGGAGT,-0.18 kcal/mol
19,TAGTGCACGTGGTTAA,-0.12 kcal/mol
20,GGAGACACGTGGTATT,0.04 kcal/mol
21,AGTGACACGTGCGGAT,-0.07 kcal/mol
22,ATTCTCACGTGTTGGC,0.18 kcal/mol
23,TCATTCACGTGGTCTT,0.28 kcal/mol
24,AGTGTCACGTGTGCGT,0.04 kcal/mol
25,TAGTGCACGTGCGAGG,-0.1 kcal/mol
26,AAGGGCACGTGGAATG,-0.08 kcal/mol

row,Sequence,relative binding free energy
1,TGAAGCACGTGTGTTC,0 kcal/mol
2,ATTGTCACGTGTCGGC,0.04 kcal/mol
3,TGAGTCACGTGGATCG,0.09 kcal/mol
4,TTCCTCACGTGGGTGA,0.2 kcal/mol
5,AGTCTCACGTGTTTAG,0.2 kcal/mol
6,TTCGTCACGTGACGGG,0.24 kcal/mol
7,GTCTTCACGTGTTTAA,0.17 kcal/mol
8,AGGTGCACGTGTTCGT,-0.13 kcal/mol
9,GTGAACACGTGTATTT,0 kcal/mol
10,GGTATCACGTGAGCGA,0.25 kcal/mol
11,TTATGCACGTGCGTAT,-0.07 kcal/mol
12,GTTGGCACGTGTTGCT,-0.1 kcal/mol
13,GATGACACGTGCAGGG,0.06 kcal/mol
14,TGTGTCACGTGGCTTA,-0.16 kcal/mol
15,TGGATCACGTGGTCCT,0.17 kcal/mol
16,GGTCGCACGTGGAGAG,0.18 kcal/mol
17,GGAAGCACGTGTGCGG,-0.09 kcal/mol
18,GGTGACACGTGATGAG,0.15 kcal/mol
19,CTTGTCACGTGGGGGC,-0.03 kcal/mol
20,GGTGACACGTGGCATG,-0.1 kcal/mol
21,AGTCTCACGTGGGGGG,0.11 kcal/mol
22,GTGAACACGTGATGCT,0.4 kcal/mol
23,TACTGCACGTGGAGGT,-0.11 kcal/mol
24,TAGAGCACGTGGTAAG,-0.1 kcal/mol
25,ATTTACACGTGCGGGC,0.07 kcal/mol
26,CAATTCACGTGTTGGG,0.15 kcal/mol

row,Sequence,relative binding free energy
1,ATATTCACGTGTTACT,0.22 kcal/mol
2,GAGGACACGTGATAGG,0.14 kcal/mol
3,GTCTGCACGTGGCGGT,-0.09 kcal/mol
4,AGGACCACGTGGTTGA,-0.1 kcal/mol
5,TGAGACACGTGCGGTG,-0.07 kcal/mol
6,AAGTACACGTGCTTGT,0.1 kcal/mol
7,AGTGGCACGTGGCCGT,-0.18 kcal/mol
8,GTCTACACGTGGGGCT,-0.03 kcal/mol
9,GGGGGCACGTGGCGTC,-0.18 kcal/mol
10,GGTGCCACGTGCGTGA,-0.11 kcal/mol
11,GTCTTCACGTGGGTTG,0.22 kcal/mol
12,GATATCACGTGTTTTG,0.27 kcal/mol
13,TGGGGCACGTGGGCAT,-0.19 kcal/mol
14,TTCGGCACGTGGGTGT,-0.17 kcal/mol
15,TATAGCACGTGGTTGC,-0.18 kcal/mol
16,GGGCGCACGTGTGGTC,-0.11 kcal/mol
17,TTTAGCACGTGATGGA,0.07 kcal/mol
18,TTCGTCACGTGTAGGG,0.09 kcal/mol
19,GTTATCACGTGATTAA,0.18 kcal/mol
20,TAATGCACGTGCAGGT,-0.11 kcal/mol
21,CTGTGCACGTGTGAGC,0.1 kcal/mol
22,GTTGTCACGTGCGGAA,-0.05 kcal/mol
23,ATTATCACGTGTAAGA,0.14 kcal/mol
24,CGGTTCACGTGTACTG,0.31 kcal/mol
25,TCTGGCACGTGTTTCA,-0.08 kcal/mol
26,CGGGGCACGTGCCGGG,-0.16 kcal/mol

row,Sequence,relative binding free energy
1,GGGAACACGTGTAGGC,0.19 kcal/mol
2,AAATACACGTGGTTTT,0.06 kcal/mol
3,GTTGCCACGTGGATAG,-0.01 kcal/mol
4,CCGTGCACGTGTTGTA,-0.07 kcal/mol
5,GAGGGCACGTGTGAAA,-0.07 kcal/mol
6,TGTTACACGTGTAAGA,0.15 kcal/mol
7,AGGAACACGTGTTCGG,0.02 kcal/mol
8,GAGGTCACGTGAATTG,0.54 kcal/mol
9,ACGTGCACGTGGGTGA,-0.16 kcal/mol
10,TTAAACACGTGGGTAG,-0.1 kcal/mol
11,GAGGGCACGTGAAAAG,0.23 kcal/mol
12,TTGGTCACGTGGTGTC,0.12 kcal/mol
13,TTCGTCACGTGATTAA,0.28 kcal/mol
14,GGGGGCACGTGCGTTC,-0.19 kcal/mol
15,TGTTACACGTGGAGTT,0.22 kcal/mol
16,CGGTGCACGTGTGGAA,0.13 kcal/mol
17,TTTGTCACGTGAAAGT,0.29 kcal/mol
18,AATCTCACGTGGGTTG,0.15 kcal/mol
19,TTTGACACGTGTTGGG,0.14 kcal/mol
20,TTCCTCACGTGTGTGG,0.35 kcal/mol
21,TCTGGCACGTGGTTGT,-0.11 kcal/mol
22,TGTGGCACGTGAACAG,-0.01 kcal/mol
23,AGGTACACGTGTTGCA,0.08 kcal/mol
24,CTGAGCACGTGAGGAG,0.24 kcal/mol
25,CGGGTCACGTGAATGC,0.41 kcal/mol
26,GAGGGCACGTGTTAGT,-0.06 kcal/mol

row,Sequence,relative binding free energy
1,GGGACCACGTGGGGTG,-0.24 kcal/mol
2,TAGGCCACGTGGGAGG,-0.27 kcal/mol
3,GGCGTCACGTGTGTTG,0.15 kcal/mol
4,GGTTGCACGTGGCGTA,0 kcal/mol
5,AGGGGCACGTGGTATA,-0.14 kcal/mol
6,GGGTACACGTGCGTGC,0.05 kcal/mol
7,TTATGCACGTGATCGG,-0.03 kcal/mol
8,AGGTCCACGTGTGTTT,0.03 kcal/mol
9,TTGGGCACGTGCGGAG,-0.09 kcal/mol
10,GTGGGCACGTGCGCTG,-0.2 kcal/mol
11,TGGCTCACGTGATGGA,0.24 kcal/mol
12,TCGAGCACGTGTGGCT,0 kcal/mol
13,GGGTTCACGTGACGTT,0.33 kcal/mol
14,ATGTGCACGTGGAGGA,-0.06 kcal/mol
15,GGGATCACGTGAGTGA,0.38 kcal/mol
16,AGGTTCACGTGGTATT,0.23 kcal/mol
17,TGGCGCACGTGGTAAG,-0.16 kcal/mol
18,ATTGACACGTGGGCGG,-0.3 kcal/mol
19,GGTAGCACGTGAAGGA,0.21 kcal/mol
20,CAATTCACGTGGTGTA,0.11 kcal/mol
21,GCGTTCACGTGTGAAT,0.36 kcal/mol
22,GAGTGCACGTGGGTAG,-0.07 kcal/mol
23,TGAGGCACGTGAGGGC,0.17 kcal/mol
24,AGATGCACGTGAGTTT,0.3 kcal/mol
25,AGGTGCACGTGTATTT,-0.05 kcal/mol
26,CAAGGCACGTGTGCGT,-0.13 kcal/mol

row,Sequence,relative binding free energy
1,TAGAACACGTGAGGTT,0.31 kcal/mol
2,TTTAGCACGTGGGTGC,-0.21 kcal/mol
3,ACATTCACGTGTGTGG,0.24 kcal/mol
4,TTGAACACGTGGGGAT,-0.02 kcal/mol
5,AGAGTCACGTGGCGTT,0.02 kcal/mol
6,GCGTGCACGTGATTTG,0.11 kcal/mol
7,GTGTACACGTGTTCTG,-0.01 kcal/mol
8,TTACGCACGTGTTAGG,-0.21 kcal/mol
9,TAGGGCACGTGTATAG,-0.14 kcal/mol
10,TGGTTCACGTGGCGTC,0.28 kcal/mol
11,AAAAGCACGTGGATTG,-0.02 kcal/mol
12,CTGAACACGTGAGTGG,0.14 kcal/mol
13,TATGTCACGTGCTCGG,0.02 kcal/mol
14,ATTGTCACGTGAGATG,0.22 kcal/mol
15,AAGGGCACGTGTGGTA,-0.17 kcal/mol
16,AGTCACACGTGCGTGG,0.05 kcal/mol
17,AATTTCACGTGTCGGG,0.21 kcal/mol
18,ATCTTCACGTGGTCGT,0.18 kcal/mol
19,TTTGGCACGTGGTGTC,-0.19 kcal/mol
20,TGGTACACGTGGTGAT,-0.07 kcal/mol
21,GTGGACACGTGGATAA,0.09 kcal/mol
22,GGGTACACGTGAGTCG,0.33 kcal/mol
23,CTACGCACGTGTGGTG,0.01 kcal/mol
24,TTTCTCACGTGTGATT,0.16 kcal/mol
25,ATAGGCACGTGAAGTA,-0.01 kcal/mol
26,AGTCGCACGTGACGGG,0.04 kcal/mol

row,Sequence,relative binding free energy
1,TAGGTCACGTGAATTG,0.36 kcal/mol
2,AGGTCCACGTGTAGTT,0.04 kcal/mol
3,TTCTTCACGTGTATAG,0.15 kcal/mol
4,AAAATCACGTGTGGGT,0.27 kcal/mol
5,AATATCACGTGTTGAG,0.14 kcal/mol
6,CGCGGCACGTGTGCGG,0.01 kcal/mol
7,GTGTACACGTGTTAAT,0.02 kcal/mol
8,ATCGTCACGTGGGCTG,0.04 kcal/mol
9,GTGTACACGTGGACGT,0.1 kcal/mol
10,GGGGGCACGTGGGATA,-0.16 kcal/mol
11,TGTCACACGTGTGTTC,0.35 kcal/mol
12,TTTGGCACGTGTGTAC,-0.08 kcal/mol
13,TAAGACACGTGGCTGT,-0.04 kcal/mol
14,TCGTTCACGTGGCTAG,0.26 kcal/mol
15,TGCTACACGTGAGTTT,0.37 kcal/mol
16,GTAATCACGTGGTCTG,0 kcal/mol
17,GTTGACACGTGGCATG,-0.14 kcal/mol
18,TGATTCACGTGTTTGC,0.23 kcal/mol
19,ATGAACACGTGATTTG,0.18 kcal/mol
20,CTCGGCACGTGGGTGG,-0.19 kcal/mol
21,TGGTTCACGTGGGGTC,0.21 kcal/mol
22,ACTGGCACGTGAGTGG,0.08 kcal/mol
23,CGTATCACGTGGAGGG,0.1 kcal/mol
24,TTCCGCACGTGTTATA,0.19 kcal/mol
25,TTTGTCACGTGGGATT,-0.01 kcal/mol
26,TGTGGCACGTGACGGT,-0.05 kcal/mol

row,Sequence,relative binding free energy
1,GTGAGCACGTGCGTTA,-0.11 kcal/mol
2,ATTTCCACGTGGGGAG,-0.12 kcal/mol
3,AAGGACACGTGTGTTT,0.07 kcal/mol
4,CGTGTCACGTGGGAGT,-0.09 kcal/mol
5,GGAAGCACGTGTGTAT,-0.09 kcal/mol
6,TGACTCACGTGTATGT,0.05 kcal/mol
7,TAGTGCACGTGGTAGG,-0.16 kcal/mol
8,TTGTTCACGTGGAACA,0.27 kcal/mol
9,AGTAACACGTGGGGAC,0.02 kcal/mol
10,TTAGGCACGTGTTTTA,0.02 kcal/mol
11,TGATGCACGTGGGTGG,-0.15 kcal/mol
12,GGGGCCACGTGAGGTC,0.27 kcal/mol
13,TTGCGCACGTGAGATA,0.18 kcal/mol
14,CGTCTCACGTGGGGGT,0.07 kcal/mol
15,GCATGCACGTGAAGTG,0.34 kcal/mol
16,TGTTTCACGTGGGAAG,0.32 kcal/mol
17,GTGTTCACGTGTAGGT,0.13 kcal/mol
18,TTTTTCACGTGATACA,0.27 kcal/mol
19,GGGTGCACGTGAAGCT,0.33 kcal/mol
20,GCTTCCACGTGGTTTG,0.18 kcal/mol
21,AGGCGCACGTGGATAG,0.04 kcal/mol
22,TAGTACACGTGGAGCG,0.25 kcal/mol
